# Measurements taken from PubChem BioAssay AID485341 (National Center for Advancing Translational Sciences (NCATS), 2010).
# In all, about 330,000 compounds went through this assay and about 1,700 (0.52%) were called active. The inconclusive results got no clear call from the source; some entries with a clear call stand among them for comparison. Calls come from the whole dose curve; as a rule, active = well fitted inhibition curve with a large enough effect; inconclusive = small, poorly fitted or top-dose-only effect; inactive = no such curve, though single readings can be large or run the other way. Potencies beside an inconclusive call are fits to weak or partial responses and may not hold up.
# Biological target: Beta-lactamase (Escherichia coli (strain K12)) (UniProt P00811)
# Sequence of UniProt P00811 (P00811 whole entry, looked up): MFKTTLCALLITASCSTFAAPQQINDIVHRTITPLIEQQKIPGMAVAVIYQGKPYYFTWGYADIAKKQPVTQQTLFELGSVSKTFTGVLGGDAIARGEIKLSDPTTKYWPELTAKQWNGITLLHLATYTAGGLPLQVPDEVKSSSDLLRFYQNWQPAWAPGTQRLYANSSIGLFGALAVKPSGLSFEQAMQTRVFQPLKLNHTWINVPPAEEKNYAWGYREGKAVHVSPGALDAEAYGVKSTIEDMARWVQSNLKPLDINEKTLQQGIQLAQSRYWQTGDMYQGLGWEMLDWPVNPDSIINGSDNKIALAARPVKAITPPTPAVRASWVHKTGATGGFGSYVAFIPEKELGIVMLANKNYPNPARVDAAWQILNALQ
# Experiment: qHTS Inhibitors of AmpC Beta-Lactamase (assay without detergent); note: nearly all actives have a fitted effect of over 20% in size
# Settings: AmpC nitrocefin hydrolysis, absorbance 480 nm, 0.0001% Triton; series mostly up to 57.1 µM
# Summary of the method: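 AmpC (5.3 nM in the dispensed reagent) in 20 mM phosphate pH 7.0 with 0.01% (detergent screen) or 0.0001% Triton X-100 was preincubated with compounds for 15 min at room temperature. Nitrocefin was then added from an 800 uM solution, and hydrolysis was followed at 480 nm.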
# Potency is the fitted concentration of half-maximal effect; tags give direction and shape of the fitted curve.
row,SMILES,Potency
1,COc1cc2c(cc1O)C[C@H]1NCCc3cc4c(c-2c31)OCO4,inactive
2,Cc1cc(C)cc(NC(=O)C(OC(=O)c2cccs2)c2ccccc2)c1 (centres undefined),"inconclusive: 15.8 µM [inhibitor, partial curve]"
3,CCOC(=O)N1CCC(NC(=O)c2ccc3snnc3c2)CC1,active: 44.7 µM
4,Cc1ccccc1NC(=O)Cc1nnc(SCC(=O)N2CCN(c3ccccc3)CC2)n1C,"inconclusive: 0.316 µM [inhibitor, full curve, poor fit]"
5,CCN1CCCC1CNC(=O)c1csc2c1CCCC2 (centres undefined),"inconclusive: 0.398 µM [inhibitor, partial curve, poor fit]"
6,NS(=O)(=O)c1ccc(CCNc2ncnc3c2c(-c2ccccc2)cn3-c2ccc(F)cc2)cc1,active: 4.47 µM
7,COc1ccc(OC)c(-c2csc(NC(=O)COC(=O)c3ccc(NC(=O)CC#N)cc3)n2)c1,active: 25.1 µM
8,CCCc1cc(-c2n[nH]c(=S)n2Cc2ccccc2)cs1,"inconclusive: 3.98 µM [inhibitor, full curve, poor fit]"
9,O=C(CS(=O)(=O)c1ccc(F)cc1)Nc1nnc(-c2cccs2)o1,"inconclusive: 35.5 µM [inhibitor, single point]"
10,N#Cc1c(-c2ccccc2Cl)c2c([nH]c1=O)-c1ccccc1OC2,"inconclusive: 1.26 µM [inhibitor, full curve, poor fit]"
11,Cc1ccc(/C=N/NC(=O)c2cccc(NC(=O)c3ccccc3C)c2)o1,"inconclusive: 28.2 µM [inhibitor, single point]"
12,CC(OC(=O)CCCN=C1NS(=O)(=O)c2ccccc21)C(=O)Nc1ccc(F)cc1Cl (centres undefined),"inconclusive: 39.8 µM [inhibitor, single point]"
13,O=C(Cn1cc(/C=N/NC(=O)c2ccccc2Br)c2ccccc21)Nc1ccc(F)cc1,active: 14.1 µM
14,Cc1ccc(N(NC(=O)C(O)(c2ccccc2)c2ccccc2)C(=O)CCl)cc1,inactive
15,CCN1CCN(Cc2nc3ccc([N+](=O)[O-])cc3c(=O)n2-c2ccccc2F)CC1,inactive
16,CCOC(=O)CSc1nc(-c2ccc(OC)cc2)ns1,"inconclusive: 6.31 µM [inhibitor, single point]"
17,COC(=O)C1CSC(C(=O)OC)N1C(=O)Nc1ccc(Cl)c(Cl)c1 (centres undefined),"inconclusive: 6.31 µM [inhibitor, single point]"
18,S=c1[nH]nc(-c2ccccc2Cl)n1/N=C/C=C/c1ccco1,"inconclusive: 28.2 µM [inhibitor, partial curve]"
19,O=C(CC(=O)Nc1ccc(Cl)cc1)N/N=C\c1cccc(F)c1,inactive
20,O=[N+]([O-])c1cccc(-c2nc(-c3cccs3)c(-c3cccs3)[nH]2)c1,inactive
21,CCCNC(=O)CS(=O)(=O)Cc1nc(-c2ccccc2C)oc1C,active: 3.55 µM
22,O=C(NNc1ccccc1[N+](=O)[O-])Nc1ccc(Cl)c(Cl)c1,active: 25.1 µM
23,Cc1ccc(-c2nc(CS(=O)(=O)CC(=O)NC3CC3)c(C)o2)cc1,inactive
24,FC(F)(F)c1cccc(N2CCN(C(=S)NC3CCCC3)CC2)c1,active: 0.251 µM
25,Cc1cc(NC(=O)CSc2sc3c(O)cc(=O)[nH]c3c2C#N)ccc1Br,active: 14.1 µM

row,SMILES,Potency
1,COc1ccc(CCN(C)C(=O)C2CCCN(C3CCN(Cc4ccccc4)CC3)C2)cc1OC (centres undefined),inactive
2,COc1ccc([N+](=O)[O-])cc1NC(=O)C1C2C=CC(C2)C1C(=O)O (centres undefined),inactive
3,COc1ccccc1N(O)C1CC(=O)N(c2ccc(Br)cc2)C1=O (centres undefined),"inconclusive: 20 µM [inhibitor, partial curve]"
4,O=[N+]([O-])c1cccc(-c2ccc(/C=N/NC(=S)Nc3ccccc3)o2)c1,"inconclusive: 22.4 µM [inhibitor, single point]"
5,COC(=O)c1ccc(CNC(=O)c2ccc(NS(=O)(=O)c3ccc4[nH]c(=O)[nH]c4c3)cc2)cc1,"inconclusive: 35.5 µM [inhibitor, single point]"
6,Cc1oc(-c2ccccc2Cl)nc1Cn1cccc1C1=NC(c2ccccc2)CO1 (centres undefined),inactive
7,COc1cccc(CNC(=O)c2nnn(CC(=O)Nc3ccc(C)c(C)c3)c2N)c1,"inconclusive: 10 µM [inhibitor, partial curve]"
8,CCCC(=O)Nc1ccc(Sc2ccc([N+](=O)[O-])cc2)cc1,"inconclusive: 0.316 µM [inhibitor, full curve, poor fit]"
9,CC(C)Oc1ccc(S(=O)(=O)N2CCOCC2)cc1NC(=O)CC1OC(=O)c2ccccc21 (centres undefined),"inconclusive: 28.2 µM [inhibitor, single point]"
10,CCC(C)(C)NC(=O)CN(C(=O)CCC(=O)Nc1nccs1)c1cccc(C)c1C,inactive
11,CCOC(=O)c1[nH]c2ccc(OC)cc2c1NS(=O)(=O)c1ccc(Cl)s1,"inconclusive: 39.8 µM [inhibitor, single point]"
12,Cc1nnc(NC(=O)CCCCCN2C(=O)C3C4C=CC(C4)C3C2=O)s1 (centres undefined),active: 6.31 µM
13,CCOc1ccc2nc(SCc3ccc(F)cc3)sc2c1,inactive
14,COc1ccccc1C(=O)Nc1ccc(S(=O)(=O)Nc2cc(C)on2)cc1,"inconclusive: 2.24 µM [inhibitor, partial curve, poor fit]"
15,O=C(NCCS(=O)(=O)N1CCC2(CC1)OCCO2)c1ccccc1,"inconclusive: 39.8 µM [inhibitor, single point]"
16,CN(C)c1ccnc(Oc2ccc(C(C)(C)C)cc2)c1C#N,"inconclusive: 6.31 µM [inhibitor, single point]"
17,COc1ccc(-c2nc3c(s2)CN(S(C)(=O)=O)CC3)cc1OC,inactive
18,O=c1oc2ccccc2c(CNc2ccccc2)c1[N+](=O)[O-],inactive
19,CC(C)CCNC(=O)c1ccc2c(c1)N(Cc1ccccc1)C(=O)CS2=O (centres undefined),"inconclusive: 6.31 µM [inhibitor, full curve, poor fit]"
20,CCOc1ccc2nc(NC(=O)CSc3nc(SC)ns3)sc2c1,"inconclusive: 35.5 µM [inhibitor, single point]"
21,NC(=S)NNc1cccc2cccnc12,inactive
22,O=C(C1=C[C@H](c2ccc3c(c2)OCO3)C[C@H](OCc2ccc(CO)cc2)O1)N1CCOCC1,inactive
23,CN(C)C(CNC(=O)CCCN1C(=O)c2cccc3cccc(c23)C1=O)c1ccccc1 (centres undefined),inactive
24,O=c1[nH]c(C2CCCN(S(=O)(=O)Cc3ccccc3)C2)nc2c1nnn2Cc1cccc(Cl)c1 (centres undefined),inactive
25,COc1ccc(OC)c(S(=O)(=O)N2CCN(c3c(C)cccc3C)CC2)c1,active: 39.8 µM

row,SMILES,Potency
1,O=C(CCNC(=O)c1ccccc1)N=Nc1c(O)[nH]c2ccccc12,inactive
2,CC(=O)Nc1cccc(C(=O)OCc2ccccc2)c1,inactive
3,O=S1(=O)NC(=NCc2ccco2)c2ccccc21,"inconclusive: 3.98 µM [inhibitor, single point]"
4,N#Cc1c(NCc2ccccc2)ccnc1NCc1cccnc1,"inconclusive: 3.98 µM [inhibitor, single point]"
5,CCC(C)NC(=O)C1CCC(=O)N(c2ccc3c(c2)OCO3)C1c1ccc(OC)cc1 (centres undefined),"inconclusive: 0.631 µM [inhibitor, full curve, poor fit]"
6,CC1CCc2nn(CC(=O)Nc3ccc(F)cc3F)cc2C1 (centres undefined),active: 39.8 µM
7,Cc1c(Cc2ccccc2)sc(/N=C/c2c(O)ccc3ccccc23)c1C(N)=O,"inconclusive: 28.2 µM [inhibitor, single point]"
8,Cc1ccc(/C=C/S(=O)(=O)NCC(=O)OCC(=O)Nc2ccc(C(N)=O)cc2)cc1,inactive
9,Cc1ccc(N(C(=O)CNC(=O)c2ccco2)C(C(=O)NC2CCCC2)c2cccnc2)cc1 (centres undefined),inactive
10,CCCCn1c(N)c(N(CC)C(=O)CSc2nnc(-c3ccco3)n2CC)c(=O)[nH]c1=O,"inconclusive: 31.6 µM [inhibitor, single point]"
11,N#Cc1ccc2c(c1)C[C@]1(c3ccsc3)Oc3c(c(=O)oc4ccccc34)C2O1,active: 5.01 µM
12,NS(=O)(=O)c1cccc(NC(=O)Nc2ccc(Cl)cc2)c1,active: 14.1 µM
13,O=C(N/N=C/c1cccc2ccccc12)c1cccc(F)c1,inactive
14,O=C(/C=C/c1cccc([N+](=O)[O-])c1)NCCN1C(=O)S/C(=C\c2cccnc2)C1=O,"inconclusive: 10 µM [inhibitor, partial curve, poor fit]"
15,CCCSc1nc(-n2ncc(C#N)c2N)c2c3c(sc2n1)CCC(C)C3 (centres undefined),active: 2 µM
16,Cc1ccccc1-c1nc(CS(=O)CC(=O)NCc2ccccn2)c(C)o1 (centres undefined),inactive
17,FC(F)(F)c1ccc(Cl)c(-n2c(-c3cc(-c4ccco4)[nH]n3)n[nH]c2=S)c1,active: 3.98 µM
18,COC(=O)C1C(=O)c2c([nH]c(C(=O)OCC3CCCO3)c2C)CC1C (centres undefined),active: 10 µM
19,Oc1ccc2ccccc2c1CNc1ccc(Br)cc1,"inconclusive: 25.1 µM [inhibitor, single point]"
20,COc1ccc(/C=N/Nc2nc(Nc3ccccc3)nc(N3CCCCC3)n2)c(OC)c1,"inconclusive: 7.94 µM [inhibitor, full curve, poor fit]"
21,O=C(CCCCCn1c(=S)[nH]c2cc3c(cc2c1=O)OCO3)NCCc1ccccc1,"inconclusive: 12.6 µM [inhibitor, partial curve]"
22,CNc1nc(Nc2ccc(Br)cc2)nc(N)c1[N+](=O)[O-],"inconclusive: 39.8 µM [inhibitor, single point]"
23,CC(C)NC(=O)CSCc1ccccc1Cl,"inconclusive: 5.62 µM [inhibitor, single point]"
24,Cc1cc(C)n2nc(S(=O)(=O)N(C)c3ccccc3)nc2n1,"inconclusive: 2.51 µM [inhibitor, full curve, poor fit]"
